Assay results taken from the RNAGym collection of RNA variant scans (doi:10.1101/gad.245936.114).
Variants at the background level are over-represented here.

B1: tRNA (parent)
chain: CUCUCGGUAGCCAAGUUGGUUUAAGGCGCAAGACUUUAAUUUAUCACUACGAAAUCUUGAGAUCGGGCGUUCGACUCGCCCCCGGGAGAUUUUUUCCUCGAGCAA

Variants of: B1
Test: nonsense suppression (GFP-seq) (ratio to wild type); higher = more function; SUP4oc tRNA, yeast GFP reporter sort-seq
Summary of the method: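 To measure nonsense suppression, tRNA variants from a library carrying ~3% random mutations were integrated into the yeast genome alongside RFP and a GFP ochre reporter under galactose control. Growth took place in raffinose/galactose medium supplemented with 80 mg/L adenine, followed by sorting into GFP/RFP bins and Illumina sequencing of each bin (phred ≥30). For each variant with ≥100 reads and ≥30 cells, the bin median GFP/RFP values were weighted by its estimated cell share per bin and referenced to the unmutated parent tRNA.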

Going from A24C U55A G61U to A24C U55C, the nonsense suppression rises from ≤ 0.026 to 0.365.

A24C U55G C79G and A24C U58G G86U cannot be ordered by nonsense suppression: ≤ 0.026 for the first, ≤ 0.026 for the second.

First: A24C U63A A87U
Second: A24C U63C
The nonsense suppression of the first is lower: ≤ 0.026 for the first, 0.205 for the second.

First: A24C U71A G78C C80A A87U
Second: A24C U71C
The nonsense suppression of the first is lower: ≤ 0.026 for the first, 0.0704 for the second.

Compared with A24C U76C, A24G A30C A62U is lower in nonsense suppression: 0.88 for the first, ≤ 0.026 for the second.

A24G A30C G67C and A24G A30G C68A C72U cannot be ordered by nonsense suppression: ≤ 0.026 for the first, ≤ 0.026 for the second.

A24G A30G C68U G86U and A24G A31G C34G U55A C75A cannot be ordered by nonsense suppression: ≤ 0.026 for the first, ≤ 0.026 for the second.

A24G A33C C56U G84A and A24G A33C C79G cannot be ordered by nonsense suppression: ≤ 0.026 for the first, ≤ 0.026 for the second.

A24G A33G U70A G86A and A24G A33U C77A cannot be ordered by nonsense suppression: ≤ 0.026 for the first, ≤ 0.026 for the second.

Going from A24G A54U to A24G A62G, the nonsense suppression falls from 0.0262 to ≤ 0.026.

A24G A87U and A24G C27A A30U C75G cannot be ordered by nonsense suppression: ≤ 0.026 for the first, ≤ 0.026 for the second.

A24G C27G and A24G C27U cannot be ordered by nonsense suppression: ≤ 0.026 for the first, ≤ 0.026 for the second.

A24G C29A A54U C80G and A24G C34U G67C U76A cannot be ordered by nonsense suppression: ≤ 0.026 for the first, ≤ 0.026 for the second.

A24G C56A U76C and A24G C56G G59C G66A G73C cannot be ordered by nonsense suppression: ≤ 0.026 for the first, ≤ 0.026 for the second.

First: A24G C72U C75G
Second: A24G C75A
The nonsense suppression of the first is lower: ≤ 0.026 for the first, 0.24 for the second.

Going from A24G C77U to A24G C79U, the nonsense suppression rises from ≤ 0.026 to 0.0352.

A24G C79U G86C and A24G C82U G88C cannot be ordered by nonsense suppression: ≤ 0.026 for the first, ≤ 0.026 for the second.

A24G G25C A31U C75G and A24G G25C U76A cannot be ordered by nonsense suppression: ≤ 0.026 for the first, ≤ 0.026 for the second.

A24G G25U and A24G G25U U35G C64A G88U cannot be ordered by nonsense suppression: ≤ 0.026 for the first, ≤ 0.026 for the second.

A24G G26A C29A C79A and A24G G26A C80A G86U cannot be ordered by nonsense suppression: ≤ 0.026 for the first, ≤ 0.026 for the second.

A24G G26U G32C G78U C79G and A24G G61A C72G cannot be ordered by nonsense suppression: ≤ 0.026 for the first, ≤ 0.026 for the second.

First: A24G G61A U76C
Second: A24G G61U U76A
The nonsense suppression of the first is higher: 0.0509 for the first, ≤ 0.026 for the second.

A24G G65A A74C and A24G G66C cannot be ordered by nonsense suppression: ≤ 0.026 for the first, ≤ 0.026 for the second.

A24G G66C A74C G84C A87U and A24G G67A C81A cannot be ordered by nonsense suppression: ≤ 0.026 for the first, ≤ 0.026 for the second.

A24G G67A U70G and A24G G67U cannot be ordered by nonsense suppression: ≤ 0.026 for the first, ≤ 0.026 for the second.

A24G G69U C79G and A24G G78A A87C cannot be ordered by nonsense suppression: ≤ 0.026 for the first, ≤ 0.026 for the second.

Going from A24G G85A to A24G U35C, the nonsense suppression falls from 0.189 to ≤ 0.026.

A24G U35G A87U and A24G U35G U55G cannot be ordered by nonsense suppression: ≤ 0.026 for the first, ≤ 0.026 for the second.

A24G U55G and A24G U57C cannot be ordered by nonsense suppression: ≤ 0.026 for the first, ≤ 0.026 for the second.

A24G U63C and A24G U71A cannot be ordered by nonsense suppression: ≤ 0.026 for the first, ≤ 0.026 for the second.

A24U A30C C83A and A24U A30G U57G G67U cannot be ordered by nonsense suppression: ≤ 0.026 for the first, ≤ 0.026 for the second.

First: A24U A30U U57G A74C G88C
Second: A24U A31G
The nonsense suppression of the first is lower: ≤ 0.026 for the first, 0.229 for the second.

A24U A33C U58A U70G and A24U A33U cannot be ordered by nonsense suppression: ≤ 0.026 for the first, ≤ 0.026 for the second.

Compared with A24U A54G A62U C75A C77G G78U G86A, A24U A54U is higher in nonsense suppression: ≤ 0.026 for the first, 0.208 for the second.

A24U A60C G67A and A24U A60G G65U G88C A89G cannot be ordered by nonsense suppression: ≤ 0.026 for the first, ≤ 0.026 for the second.

A24U A62C C80A G88C and A24U A74G cannot be ordered by nonsense suppression: ≤ 0.026 for the first, ≤ 0.026 for the second.

A24U A87U and A24U C27G cannot be ordered by nonsense suppression: ≤ 0.026 for the first, ≤ 0.026 for the second.

A24U C27U and A24U C27U A33G cannot be ordered by nonsense suppression: ≤ 0.026 for the first, ≤ 0.026 for the second.

A24U C29A C79U and A24U C29G U35C A62U cannot be ordered by nonsense suppression: ≤ 0.026 for the first, ≤ 0.026 for the second.

A24U C29U G66A and A24U C29U G73A C77A G78A cannot be ordered by nonsense suppression: ≤ 0.026 for the first, ≤ 0.026 for the second.

A24U C34A U35A and A24U C56A G73C cannot be ordered by nonsense suppression: ≤ 0.026 for the first, ≤ 0.026 for the second.

A24U C56G and A24U C64U cannot be ordered by nonsense suppression: ≤ 0.026 for the first, ≤ 0.026 for the second.

First: A24U C72G
Second: A24U C75U C81U
The nonsense suppression of the first is higher: 0.03 for the first, ≤ 0.026 for the second.

A24U C79U C83G and A24U C81A cannot be ordered by nonsense suppression: ≤ 0.026 for the first, ≤ 0.026 for the second.

A24U C82G and A24U G25A G67C cannot be ordered by nonsense suppression: ≤ 0.026 for the first, ≤ 0.026 for the second.

A24U G28A A33U U57A G69U and A24U G28A U55C cannot be ordered by nonsense suppression: ≤ 0.026 for the first, ≤ 0.026 for the second.

A24U G32A U55A and A24U G59C cannot be ordered by nonsense suppression: ≤ 0.026 for the first, ≤ 0.026 for the second.

A24U G61C C75G and A24U G61U G65C G69A U71C G88A cannot be ordered by nonsense suppression: ≤ 0.026 for the first, ≤ 0.026 for the second.

A24U G65C C80U and A24U G66A cannot be ordered by nonsense suppression: ≤ 0.026 for the first, ≤ 0.026 for the second.

A24U G67A G78U and A24U G73C cannot be ordered by nonsense suppression: ≤ 0.026 for the first, ≤ 0.026 for the second.

Compared with A24U G78U, A24U G84U is lower in nonsense suppression: 0.0565 for the first, ≤ 0.026 for the second.

First: A24U G85A
Second: A24U U35G U55G C77A
The nonsense suppression of the first is higher: 0.327 for the first, ≤ 0.026 for the second.

Going from A24U U55A to A24U U55C, the nonsense suppression rises from ≤ 0.026 to 0.104.

A24U U55C G73U G85A and A24U U57A cannot be ordered by nonsense suppression: ≤ 0.026 for the first, ≤ 0.026 for the second.

A24U U57C G88C and A24U U57G cannot be ordered by nonsense suppression: ≤ 0.026 for the first, ≤ 0.026 for the second.

A24U U57G U58G and A24U U58C G85A cannot be ordered by nonsense suppression: ≤ 0.026 for the first, ≤ 0.026 for the second.

First: A24U U58G G61C
Second: A24U U63C
The nonsense suppression of the first is lower: ≤ 0.026 for the first, 0.0344 for the second.

A24U U70A G86A and A24U U70G A74C C81U C82U cannot be ordered by nonsense suppression: ≤ 0.026 for the first, ≤ 0.026 for the second.

A24U U71G and G25A A30C cannot be ordered by nonsense suppression: ≤ 0.026 for the first, ≤ 0.026 for the second.

G25A A30G A62G A74U C79A and G25A A30G U58A cannot be ordered by nonsense suppression: ≤ 0.026 for the first, ≤ 0.026 for the second.

G25A A30U C34A U58A and G25A A30U U76C cannot be ordered by nonsense suppression: ≤ 0.026 for the first, ≤ 0.026 for the second.

G25A A33G and G25A A62G cannot be ordered by nonsense suppression: ≤ 0.026 for the first, ≤ 0.026 for the second.

Going from G25A C27A to G25A C29A G84C, the nonsense suppression rises from ≤ 0.026 to 0.027.

G25A C34A and G25A C56A cannot be ordered by nonsense suppression: ≤ 0.026 for the first, ≤ 0.026 for the second.

G25A C56G G78U and G25A C64A cannot be ordered by nonsense suppression: ≤ 0.026 for the first, ≤ 0.026 for the second.

G25A C68A and G25A C72U cannot be ordered by nonsense suppression: ≤ 0.026 for the first, ≤ 0.026 for the second.

G25A C75G G78A and G25A C77G C82U A89C cannot be ordered by nonsense suppression: ≤ 0.026 for the first, ≤ 0.026 for the second.

G25A G26A C27U C29G A54G and G25A G28A A87C cannot be ordered by nonsense suppression: ≤ 0.026 for the first, ≤ 0.026 for the second.

G25A G28U C83A G84C G86A and G25A G28U G32C A74C cannot be ordered by nonsense suppression: ≤ 0.026 for the first, ≤ 0.026 for the second.

G25A G32U and G25A G65A C83G cannot be ordered by nonsense suppression: ≤ 0.026 for the first, ≤ 0.026 for the second.

G25A G69C U76A and G25A G73C cannot be ordered by nonsense suppression: ≤ 0.026 for the first, ≤ 0.026 for the second.

G25A G73C A87U and G25A G86A cannot be ordered by nonsense suppression: ≤ 0.026 for the first, ≤ 0.026 for the second.

G25A G88U and G25A U55C G84A cannot be ordered by nonsense suppression: ≤ 0.026 for the first, ≤ 0.026 for the second.

G25A U58A A74U and G25A U63C cannot be ordered by nonsense suppression: ≤ 0.026 for the first, ≤ 0.026 for the second.

G25A U63C C72G and G25C A30G A33U cannot be ordered by nonsense suppression: ≤ 0.026 for the first, ≤ 0.026 for the second.

G25C A31C G73A and G25C A31G A54U cannot be ordered by nonsense suppression: ≤ 0.026 for the first, ≤ 0.026 for the second.

G25C A33U and G25C A33U U71A C79A A89U cannot be ordered by nonsense suppression: ≤ 0.026 for the first, ≤ 0.026 for the second.

First: G25C A54U
Second: G25C A60G
The nonsense suppression of the first is higher: 0.0708 for the first, 0.0619 for the second.

G25C A89U and G25C C34A A87G cannot be ordered by nonsense suppression: ≤ 0.026 for the first, ≤ 0.026 for the second.

G25C C34G and G25C C56A A62C G73C cannot be ordered by nonsense suppression: ≤ 0.026 for the first, ≤ 0.026 for the second.

G25C C79U and G25C C80A cannot be ordered by nonsense suppression: ≤ 0.026 for the first, ≤ 0.026 for the second.

G25C C81A and G25C C82G cannot be ordered by nonsense suppression: ≤ 0.026 for the first, ≤ 0.026 for the second.

G25C C82U and G25C G32A A54G G85U cannot be ordered by nonsense suppression: ≤ 0.026 for the first, ≤ 0.026 for the second.

In the case of G25C G61A C80A, the nonsense suppression is reported as ≤ 0.026.
